Laboratory results published in the supplement of paper PMC3334620.
In all, about 33,000 sequences were measured (“E-score (-0.5 to 0.5)”: median about -0.054, highest 2% from about 0.39 on). This is one part of the list.

Each sequence was assayed against Ylr278c (UniProt Q05854) (assay: PBM E-score (8-mer binding enrichment) (E-score (-0.5 to 0.5)); higher = stronger / more preferred TF binding; most listed sequences are background and not binding sites). Settings: protein concentration: 200 nM; construct: GST-DNA-binding domain.
Summary of the method: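 The E-score, a modified Wilcoxon-Mann-Whitney statistic, was computed by the Universal PBM Analysis Suite for every ungapped eight-base word pooled with its reverse complement. Scans behind it were normalised with masliner after bound GST-tagged yeast transcription factors were detected with fluorescent anti-GST. The proteins, at about 100-200 nM, had been applied to universal all-10-mer Agilent arrays made double-stranded by primer extension.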

| Sequence | PBM E-score |
| --- | --- |
| CGAGCCGC | 0.265 |
| ATCCTAAC | -0.0938 |
| AGGTAAGG | -0.249 |
| ACAAATGA | -0.193 |
| AGACTACT | -0.287 |
| GATAGGCA | -0.212 |
| CAAACTCC | 0.434 |
| TGAGCTAA | -0.116 |
| AGAGACAA | -0.1 |
| AACATGGT | -0.225 |
| GGAGCTAA | 0.24 |
| CGCGTGAA | 0.0864 |
| ATGGTCAG | -0.101 |
| GAACTGGA | 0.113 |
| TATGAAAA | -0.0683 |
| AGGATTAA | 0.0585 |
| ATGATTTC | 0.124 |
| ATCCTGGA | -0.101 |
| GGTCCATA | -0.115 |
| GTGAAACA | -0.0739 |
| CCCCCAGG | -0.25 |
| CGTAAAAC | 0.0289 |
| CGACATTA | 0.132 |
| GTAGCCTA | -0.355 |
| GTAGCGAC | -0.186 |

| Sequence | PBM E-score |
| --- | --- |
| GCATTGAA | 0.0449 |
| AGCCAGAC | -0.0281 |
| GGCCTAGA | -0.071 |
| AGGTAGTC | -0.0355 |
| ACTCTGAC | -0.0061 |
| ACTCATCG | 0.0183 |
| GACAGGAC | -0.0707 |
| CGTGTCCC | -0.0085 |
| GGCCAGGA | -0.107 |
| CATCTTTC | -0.251 |
| ACACCCAT | -0.0358 |
| GCTAACGA | -0.0229 |
| AACTTACA | -0.122 |
| CATAAATG | -0.232 |
| AAATGTCC | 0.222 |
| AAATTCCC | 0.254 |
| AATGGCGT | -0.0782 |
| GCGCTACA | 0.023 |
| GGGGGATA | -0.0821 |
| AAGTAAGA | -0.245 |
| AAGGCACG | 0.0867 |
| ATATAGAT | -0.0849 |
| GTCGTGTA | -0.171 |
| AACCCACG | -0.19 |
| AATCCACA | -0.0935 |

| Sequence | PBM E-score |
| --- | --- |
| CCGTCAAC | 0.117 |
| AGGTTGGG | -0.122 |
| CACCCCAG | -0.00942 |
| TCACCCCA | 0.00786 |
| AATATCCA | 0.0239 |
| AGTATGAC | 0.0596 |
| AAAATGTG | -0.0205 |
| CCGTGATA | 0.135 |
| GAGTGGAC | -0.0604 |
| GCGATGAC | 0.12 |
| ATAGCTGA | -0.185 |
| GATTTCCA | 0.079 |
| AAACCAGG | -0.121 |
| ACCCTCAC | -0.216 |
| GGAAGATA | 0.0872 |
| CGCACCTC | 0.135 |
| AAGCTAGA | -0.183 |
| CAGTTGCA | -0.154 |
| CATGTTAC | -0.196 |
| GTAGCAAA | -0.0601 |
| TAGCGTCA | -0.195 |
| CCATAGCC | -0.101 |
| CAGCCCCG | 0.326 |
| CCGGCCGA | 0.415 |
| CACTCTTC | -0.0215 |

| Sequence | PBM E-score |
| --- | --- |
| ATCGGCAT | 0.328 |
| GTTAATGA | -0.0742 |
| CGACAGCC | -0.00437 |
| AAGACATC | -0.066 |
| CACGCAGG | 0.0584 |
| CAACCCGG | 0.229 |
| TGATCAAA | -0.231 |
| ATAGTAAA | -0.166 |
| GAAATAGC | 0.0894 |
| AACCGCCA | -0.0604 |
| CCAGTCAC | -0.182 |
| CTGCGGCA | 0.151 |
| CGTTACCC | -0.103 |
| GACGTACA | -0.116 |
| GTTTCAGA | -0.0705 |
| ACCCAAGA | -0.149 |
| AGCGAGCC | 0.00731 |
| AGAGAGTC | -0.267 |
| CCGTCGGC | 0.366 |
| AAAATTGC | 0.049 |
| CATCGAGA | -0.202 |
| CAATGGTG | -0.248 |
| ATGGTTCC | 0.145 |
| GTGGGAGA | -0.158 |
| CGACCGAG | 0.0759 |

| Sequence | PBM E-score |
| --- | --- |
| CAACTTGC | -0.213 |
| CGCGCACA | 0.135 |
| AAAATGTC | 0.112 |
| AGCTCTGG | -0.245 |
| ATGCTAAC | -0.12 |
| ACTCCGAC | 0.481 |
| CCACCTAA | -0.0328 |
| AGACCGCT | -0.0752 |
| CTCAGAAG | -0.174 |
| ACGGGTGG | 0.0866 |
| CATAACAA | 0.0761 |
| GTGGGCAA | -0.0913 |
| AAGTCGCC | 0.0391 |
| CAGGCAAA | -0.0595 |
| GCGCTAAC | -0.0799 |
| CCTGGACC | -0.292 |
| ATCGGAAC | 0.406 |
| ACCCCACG | 0.106 |
| ACGTCTAC | -0.163 |
| CCAGAGCG | -0.00204 |
| AAATCCCC | 0.205 |
| CTAACTAA | -0.118 |
| AGCCTGAA | -0.0256 |
| ATGCTCGC | -0.172 |
| AACTTGGC | -0.102 |

| Sequence | PBM E-score |
| --- | --- |
| ACTGACGG | 0.138 |
| ACTCCCTC | -0.121 |
| ACCATTGG | -0.248 |
| GACGCATA | -0.0119 |
| AACGCCTA | -0.117 |
| ACACACTC | -0.125 |
| CATGAATA | -0.31 |
| ATCACACA | -0.159 |
| CATCGACA | -0.0818 |
| AAGTGTGG | 0.0694 |
| AGGCCTGC | 0.00429 |
| AGTCCTCG | -0.132 |
| GGAGCGGA | 0.396 |
| CGGGAACG | 0.237 |
| ACCCCGAG | 0.319 |
| AGCAGCGC | -0.102 |
| GGTGAGTA | -0.184 |
| AGTAGCAA | -0.00356 |
| CAAAACCC | 0.223 |
| CGCGCCAC | -0.00415 |
| AGACCCAA | -0.0698 |
| CCAGCGTC | -0.00155 |
| CACTCATC | 0.00846 |
| GTGGAAAA | 0.0415 |
| GTGCGAAA | -0.127 |

| Sequence | PBM E-score |
| --- | --- |
| AGACCACG | -0.0802 |
| AAACAAGA | -0.0926 |
| AGGACTTC | -0.0413 |
| CATCTTCG | 0.0625 |
| GTCACTGA | -0.0871 |
| ATTCTGAG | -0.0104 |
| TATTGTCA | -0.09 |
| ATTTCACA | -0.045 |
| ACATGCCT | -0.19 |
| ACCGCCGA | 0.324 |
| CTTACAAA | -0.0607 |
| GACAATGC | 0.0317 |
| GAGATCCA | 0.0182 |
| CGCGATCC | 0.131 |
| ACACGAAA | 0.0722 |
| ACGGTGCG | 0.0201 |
| GTCAATTA | -0.0587 |
| TAGTTATA | -0.05 |
| GGCAACAA | -0.145 |
| AGAGATTC | 0.054 |
| AATTCCGA | 0.48 |
| AGATCTGG | -0.142 |
